Measured values reported in PubChem BioAssay AID485344 (National Center for Advancing Translational Sciences (NCATS), 2010).
In all, about 340,000 compounds went through this assay and about 6,900 (2%) were called active. Cut-off read from the data, not from the text of the source: active = inhibition above about 30%; inactive = below that, where a call was filed. The list shows a part of the results, in another mix than the full data. The source gives no active or inactive call for entries shown without one.
Note: 0% is about no effect.

Each compound was assayed against D(2) dopamine receptor (Homo sapiens) (UniProt P14416) (assay: HTS Assay for Allosteric Antagonists of the Human D2 Dopamine Receptor: Primary Screen for Antagonists). Conditions: HEK293 TREx D2 cells, calcium flux, dopamine EC80; at 10 µM; stronger effect = higher value.
Chain of UniProt P14416 (P14416 whole entry, looked up): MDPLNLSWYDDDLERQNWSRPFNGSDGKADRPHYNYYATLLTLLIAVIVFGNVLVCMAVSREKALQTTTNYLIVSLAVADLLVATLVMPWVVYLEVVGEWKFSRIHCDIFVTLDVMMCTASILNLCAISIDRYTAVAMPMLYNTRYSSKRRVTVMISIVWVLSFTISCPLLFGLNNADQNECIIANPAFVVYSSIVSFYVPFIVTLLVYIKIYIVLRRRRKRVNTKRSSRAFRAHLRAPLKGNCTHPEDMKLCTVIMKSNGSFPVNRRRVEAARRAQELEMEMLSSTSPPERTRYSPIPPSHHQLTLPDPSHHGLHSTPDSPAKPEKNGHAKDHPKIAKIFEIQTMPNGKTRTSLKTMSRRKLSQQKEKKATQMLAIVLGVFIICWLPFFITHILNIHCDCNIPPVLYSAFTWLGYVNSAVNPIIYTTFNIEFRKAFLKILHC
Outline: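 Calcium mobilization kinetics were recorded at 1 s intervals in tetracycline-induced HEK293 T-REx D2 cells, first for 180 s after compound addition and then 180 s after EC80 dopamine.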
`N#Cc1ccccc1Cn1c(=O)n(Cc2ccc(C(=O)NC3CCN(Cc4ccccc4)CC3)cc2)c(=O)c2ccccc21` showed an inhibition of 9.96%.
`Cc1c2cnn(-c3ccccc3)c(=O)c2c(C)n1C(C)C(=O)Nc1ccc(Br)cc1F` (configuration not stated) was tested, and the inhibition was 5.81%.
Compound `Cc1ccc(-n2c(SCC(=O)Nc3cccc(F)c3)nc3c(oc4ccccc43)c2=O)cc1C` has an inhibition of -7.75%.
In the case of `COc1ccc(N2CCN(C(=O)NCc3noc4ccccc34)CC2)cc1`, the inhibition is reported as 3.22%.
In the case of `Cc1cc(C)cc(-n2ccn3c(CC(C)(C)CC(=O)O)nnc3c2=O)c1`, the inhibition is reported as 0.836%.
In the case of `COc1cccc(NC(=O)C2CCCN2S(=O)(=O)c2ccc3c(c2)C(C)(C)C(=O)N3C)c1` (configuration not stated), the inhibition is reported as 18%.
`Cc1ccc2oc3c(c(=O)c2c1)C(c1cccc(O)c1)N(Cc1ccccc1Cl)C3=O` (configuration not stated) was tested, and the inhibition was 10.2%.
With `COc1ccc(C(CNC(=O)C(C)Oc2ccc(Br)cc2)N2CCCC2)cc1` (configuration not stated) the inhibition was active: 40.8%.
In the case of `CCN1c2cc(C)ccc2-n2cccc2C12CCN(C(=O)Nc1cc(OC)c(OC)c(OC)c1)CC2`, the inhibition is reported as -1.53%.
With `CCOC(=O)c1c(NC(=O)c2ccc(S(=O)(=O)N3CCCC(C)C3)cc2)sc2c1CCN(C(C)C)C2` (configuration not stated) the inhibition was -17%.
With `Cc1ccc(NC(=S)N2CCC(c3ccccc3)C2)c(Cl)c1` (configuration not stated) the inhibition was active: 30.1%.
In the case of `Cc1ccc(S(=O)(=O)c2nc(-c3ccco3)oc2SCc2ccccc2Cl)cc1`, the inhibition is reported as 9.97%.
Compound `CCOC(=O)c1cc(-c2ccccc2)n(-c2cccc(C(=O)N(CC)c3ccccc3)c2)c1C` has an inhibition of -19%.
In the case of `Cc1cc(C)cc(NC(=O)C(=O)NC(C)c2ccccc2)c1` (configuration not stated), the inhibition is reported as 1.74%.
In the case of `Cc1ccc(C)c2[nH]c(=O)c(CN(Cc3cccs3)C(=S)NCc3ccco3)cc12`, the inhibition is reported as active: 52.6%.
Compound `COc1ccc(N2Cc3cccc(C(=O)Nc4ccc(C)c(C)c4)c3C2=O)cc1` has an inhibition of 1.22%.
Compound `O=C(NCCC1=CCCCC1)c1ccc2c(c1)N(Cc1ccccc1F)C(=O)c1ccccc1S2(=O)=O` has an inhibition of 14.6%.
`CCc1cccc(N2C(=O)CS(=O)(=O)C23C(=O)N(Cc2ccc(F)cc2)c2ccc(C)cc23)c1` (configuration not stated) was tested, and the inhibition was -1.91%.
For `CC1=C(C(=O)Nc2ccc(C)cc2)C(c2ccc(Cl)cc2)n2nnnc2N1` (configuration not stated), the inhibition was -3.07%.
`Cc1ccc(NC(=O)CN2C(=O)C(C)(C)c3ccccc32)cc1` gave an inhibition of -4.47%.
`CCOc1ccc(N2CC(NC(=O)Cc3ccccc3)CC2=O)cc1` (configuration not stated) showed an inhibition of -9.82%.
`O=C(Cc1cccs1)NC1CC(=O)N(c2ccc(Cl)cc2)C1` (configuration not stated) was tested, and the inhibition was 24.6%.
`Cc1ccc(-c2nn3c(-c4ccccc4)nnc3c3ccccc23)cc1` gave an inhibition of 18%.
Compound `Cc1cccc(C(=O)OCc2cc(=O)n3nc(C4CCCCC4)sc3n2)c1` has an inhibition of -9.25%.
In the case of `C=CCN(c1ccccc1)S(=O)(=O)c1cccc(C(=O)Nc2nnc(SCC)s2)c1`, the inhibition is reported as active: 42.6%.
`C=Cc1ccc(Cn2c(C(=O)O)c(CNCc3cc(Br)ccc3OC)c3ccc(C)cc32)cc1` gave an inhibition of -0.183%.
`CCCN1C(=O)C2(c3ccccc31)c1c(oc3ccccc3c1=O)C(=O)N2CCO` (configuration not stated) showed an inhibition of 2.4%.
For `Cc1cccc(N2CCN(C(=O)CS(=O)(=O)c3cccc4nsnc34)CC2C)c1` (configuration not stated), the inhibition was -15.7%.
For `O=c1oc2ccc(Br)cc2cc1-c1csc(-c2ccc(Cl)cc2)n1`, the inhibition was 8.71%.
`Fc1ccccc1CN1CCN(c2ncccn2)CC1` was tested, and the inhibition was active: 84.1%.
For `O=C(CC(NCc1cccnc1)C(=O)O)Nc1ccc(F)cc1` (configuration not stated), the inhibition was 1.84%.
`CCOc1ccccc1NC(=O)c1c(NCc2sccc2C)sc2c1CCCCC2` showed an inhibition of 1.48%.
With `CCN(CC)CCNC(=O)c1ccc(Cn2c(=O)c3cccn3c3cccnc32)cc1` the inhibition was 3.8%.
For `Cc1ccc(-n2ncc(C(=O)NCCc3ccsc3)c2C2CCN(C(=O)OC(C)(C)C)CC2)cc1C`, the inhibition was -6.7%.
For `O=C(NCC1CCCO1)C(=O)NCC(c1ccco1)N1CCN(c2ccccc2F)CC1` (configuration not stated), the inhibition was active: 48.2%.
For `Cc1cc(NC(=O)CSc2ncc(C(=O)Nc3ccc(F)cc3)c(=O)n2C)no1`, the inhibition was 26.8%.
Work on `Cc1nc2ccccc2c(=O)n1-c1ccc(NC(=O)C(F)(F)F)cc1` yielded an inhibition of 7.8%.
`NC(=O)CSc1ncc2c(n1)-c1ccccc1N(Cc1cccc(F)c1)S2(=O)=O` was tested, and the inhibition was 0.327%.
Compound `COc1ccc2nc3oc(C(=O)NCc4ccccc4OC)cc3cc2c1` has an inhibition of -20.6%.
In the case of `COc1ccc(-c2noc(-c3nnn(-c4cc(C)ccc4C)c3N)n2)cc1`, the inhibition is reported as 0.858%.
Compound `COc1ccccc1-c1nnc(C2CCN(C(=O)c3ccc(C)cc3)CC2)o1` has an inhibition of -3.24%.
Compound `CC1(C)CC(=O)c2c(oc3c(Cl)cc(NS(=O)(=O)c4ccc(Cl)cc4)cc23)C1` has an inhibition of 4.11%.
`CN(C)S(=O)(=O)c1ccc2c(c1)N(CC(=O)N1CCN(c3ccc(F)cc3)CC1)CCS2` showed an inhibition of -3.98%.
With `Cc1ccc(-c2nc(CS(=O)CC(=O)N3CCN(c4ccc(Cl)cc4)CC3)c(C)o2)cc1` (configuration not stated) the inhibition was 10%.
With `COc1ccccc1CCNC(=O)C(=O)NCC(c1ccco1)S(=O)(=O)c1ccc(C)cc1` (configuration not stated) the inhibition was -11.9%.
`COc1ccccc1Nc1cc(C(=O)NCc2cccs2)c2ccccc2n1` was tested, and the inhibition was -2.06%.
In the case of `Cc1cc(NC(=O)Nc2nc3c(s2)CCCCCC3)ccc1Br`, the inhibition is reported as 8.26%.
For `CCCCn1c(CNC(=O)c2ccc(OC)cc2)nnc1SCC(=O)Nc1ccc(OC)cc1`, the inhibition was 7.35%.
With `Cc1ccc(NCc2nc3ccccc3n2CCOc2ccccc2)cc1` the inhibition was 7.14%.
With `CCC(=O)N1CCc2cc(S(=O)(=O)CCC(=O)NCc3ccccc3OC)ccc21` the inhibition was 24.6%.
`Cc1ccc(CNC(=O)CCS(=O)(=O)c2cc(Br)cc3c2N(C(=O)C2CC2)CC3)cc1` gave an inhibition of 10.2%.
`Cc1ccc(-n2nc(CO)c(C(=O)NCc3cccs3)n2)cc1` showed an inhibition of 0.391%.
With `Cc1ccc(S(=O)(=O)N(C)C)cc1NC(=O)CCCNC(=O)c1ccc(Cl)cc1` the inhibition was active: 40.5%.
In the case of `CCn1nc(C)c(CCN(C)C(=O)Nc2cc(Cl)ccc2C)c1C`, the inhibition is reported as -3.88%.
With `Cc1cccc2sc(NC(=O)C3CCCO3)nc12` (configuration not stated) the inhibition was active: 31.9%.
Work on `COc1ccc(CC(=O)NCCc2csc(-c3ccc(Cl)cc3)n2)cc1` yielded an inhibition of -10.4%.
`CCNC(=O)Cc1ccc(NC(=O)N2CCCCc3ccccc32)cc1` showed an inhibition of 10.1%.
With `CCCn1c2ccccc2c2cnn(CC(=O)NCCc3ccc(OC)cc3OC)c(=O)c21` the inhibition was 2.68%.
`CCN(CC)c1nn2c(=O)c(C(=O)NCc3ccc(F)cc3)cnc2s1` gave an inhibition of -4.79%.
For `Cc1nc(-c2ccccc2)sc1CCNS(=O)(=O)c1ccc(Br)cc1`, the inhibition was 23.1%.
With `Cc1ccc(/C=C/C(=O)c2cc(Br)ccc2OC(=O)c2ccco2)cc1` the inhibition was active: 35.1%.
For `Cc1ccc(C(=O)N(Cc2ccc(N(C)C)cc2)Cc2ccco2)cc1`, the inhibition was 0.95%.
